Assay results from the RNAGym collection of RNA variant scans (doi:10.7554/elife.90254).
Read counts are not given, so values of variants with three or more changes are uncertain.

B1: LINE1-mini (parent)
chain: GGCAGAGCUCAACACAGCGUGGCAAAGUGGCUGUGGCUAGACUGCC

Variants of: B1
Assay: self-cleavage, relative activity (ratio to wild type); higher = more cleavage; in vitro, sequencing; the parent is a self-cleaving ribozyme

Variant | self-cleavage
GGCAGAGAUCAAUACAGAGUGGCAAAGUGGCUGUGGCUAGACUGCC [C8A C13U C18A] | 0.17
GGCAGAGAUCAACAGAGCGUGGCAAAGUGGCUGUGGCUAGACUCCC [C8A C15G G44C] | 0.17
GGCAGAGAUAAACACAGCGUGGCAAAGUGGUUGUGGCUAGACUGCC [C8A C10A C31U] | 0.01
GGCAGAGAUCAAAACAGCGUGGCAAAGUGGCUGUGGCUAGACUGUC [C8A C13A C45U] | 0.53
GGCAGAGAUAAAAACAGCGCGGCCAAGUGGCUGUGGCUGGGCUGCC [C8A C10A C13A U20C A24C A39G A41G] | 0.01
GGCAGAGAUAAACACAGCGUGGCAAAGUGGCUGUGGCAAGACUGCC [C8A C10A U38A] | 0.03
GGCAGAGAUCAACAGAGCGUGGCAAAGUGGCUGUGGUUAGACUGCC [C8A C15G C37U] | 0.11
GGCAGAGAUCAACAUCGCGUGGCAAAGAGGCUGUGGCUAGACUGCC [C8A C15U A16C U28A] | 0.01
GGCAGAGAUCAACACAGGGUGGCAAAGUGGCUGUUGCUAGACUUCC [C8A C18G G35U G44U] | 0.14
GGCAGAGAUCAACACAGCGUGGUAAUGUGGCUGUGGCUAGACUGCC [C8A C23U A26U] | 0.46
GGCAGAGAUCAACACAGUGUUGCAAAGUGGCUGUCGCUGGACAGCC [C8A C18U G21U G35C A39G U43A] | 0.02
GGCAGAGAUGAACACAACGUGGCAAAGUGGCUGUGGAUAGAGUGCC [C8A C10G G17A C37A C42G] | 0.01
GGCAGAGAUCAACAUAGCGUGUCAAAGUGGCUGUGGCUAGACUGCC [C8A C15U G22U] | 0.15
GGCAGAGAUUAACACAGUGUGGCAAAGUGGCUGUGGCCAGACUGCC [C8A C10U C18U U38C] | 0.05
GGCAGAGAUCAACACAGUGUGGCAAAGUGGCUCUGACUAGACUGCC [C8A C18U G33C G36A] | 0.2
GGCAGAGAUUCACACAGCGUGGCAAAGUGGCUGUGGCUAGACUGCC [C8A C10U A11C] | 0.01
GGCAGAGAUUGACACAGCGUGGCAAAGUGGCUGUGGCUAGACUGCC [C8A C10U A11G] | 0.02
GGCAGAGAUGAACACCGCGUGGCAAAAUGGCGGUGGCUAGACUGCC [C8A C10G A16C G27A U32G] | 0
GGCAGAGAUCAACAUAGCGUGGCAAAGUGACUGCAGCUAGACUGUC [C8A C15U G30A U34C G35A C45U] | 0.17

Variant | self-cleavage
GGCAGAGAUCAACAUAGCGUGGCAAAGUGGCUGUGCCUAGACUGCC [C8A C15U G36C] | 0.19
GGCAGAGAUCAACAUAGCGUGGCAAAGUGGCUGUGGCUUCACUGCC [C8A C15U A39U G40C] | 0.63
GGCAGAGAUCAACACAGCGUGGAAAAGUGGGUGUGGCCAGACUGCC [C8A C23A C31G U38C] | 0.17
GGCAGAGAUAAACACAGCGUGGCAACGAGGCUGUGGCUAGAUUGCC [C8A C10A A26C U28A C42U] | 0.01
GGCAGAGAUCAAUACAGCGUGGCAAAGUGGCUGUGGCUAUACUGCC [C8A C13U G40U] | 0.12
GGCAGAGAUCAACACAGAUUGGCAAAGUGGCUGUGGCUAGACUGCC [C8A C18A G19U] | 0.07
GGCAGAGAUCAACAAAGCGUGGCAAAGUGGCUGUGGCUAAACUGCC [C8A C15A G40A] | 0.14
GGCAGAGAUAAACACAGCGUGCCAAAGGGGCUGUGGCUAGACUGCC [C8A C10A G22C U28G] | 0.02
GGCAGAGAUAAACACAGCGUGGCAAAGUGGCUGAGGCUAGCCUGCC [C8A C10A U34A A41C] | 0.04
GGCAGAGAUCAAAACAAAGUGGCAAAGUGGAUGUCUCUAGACAGCC [C8A C13A G17A C18A C31A G35C G36U U43A] | 0.03
GGCAGAGAUGAACAUAGCGUGGCAGUGUGGCUGUGGCUAGACUGCC [C8A C10G C15U A25G A26U] | 0.02
GGCAGAGAUCAAGACAGCGUGGCACGGUGGCUGUGGCUAGACUGCC [C8A C13G A25C A26G] | 0.25
GGCAGAGAUCAACAGAGCGUGGCAAAGUGGCUGUGGCGAGACUGCC [C8A C15G U38G] | 0.02
GGCAGAGAUAAACACAGCGUGGGAAAGUGGUUGUGGCUAGACUGCC [C8A C10A C23G C31U] | 0.02
GGCAGAGAUGAACACAGCGUGGCAAAGUGCCUGUGGCUAGACUACC [C8A C10G G30C G44A] | 0.02
GGCAGAGAUAAACACAGCGCGGCAUCGUGGCUGUUGCUAGUCUGCC [C8A C10A U20C A25U A26C G35U A41U] | 0
GGCAGAGAUCAACACAGAGUGGCAAAGUGGCUGUGCCUAGACUGCC [C8A C18A G36C] | 0.07
GGCAGAGAUUAACACUGCGGGGCAAAGUGGCUGUGGCUAGACUGCC [C8A C10U A16U U20G] | 0.13
GGCAGAGAUCAACACAGAGUGCCAAAGUGGCUAUGGCUAGACUGCC [C8A C18A G22C G33A] | 0.1

Variant | self-cleavage
GGCAGAGAUAAACACAGCGUGGCAAAGUGGCUGUGUCUAGACUGCC [C8A C10A G36U] | 0.01
GGCAGAGAUCAACAAAGCGUGGCAAAGUGGUUGUGGCUAGACUGCC [C8A C15A C31U] | 0.23
GGCAGAGAUCAAAACAGCGUGGCAGAGUGGCUUUGGCUAGACUACC [C8A C13A A25G G33U G44A] | 0.7
GGCAGAGAUCAACACAGCGUGGAAAAGUGGCUGAGGAUAGACUGCC [C8A C23A U34A C37A] | 0.03
GGCAGAGAUCAACAGAGCUUGGCAGGGUAGAUUUGGCUAGACUGCC [C8A C15G G19U A25G A26G G29A C31A G33U] | 0.1
GGCAGAGAUCAACACAGCGUGGCAAAGUGGGUGAGACUGGACUGCC [C8A C31G U34A G36A A39G] | 0.03
GGCAGAGAUCAAUACAGCGUGGCUAGGUGGCUGUGGCUGGACUGCC [C8A C13U A24U A26G A39G] | 0.06
GGCAGAGAUAAACACAGAGUGGCAAAGUCGCUGCGGCUAGACUGCC [C8A C10A C18A G29C U34C] | 0.02
GGCAGAGAUCAAUACAGCGUUGCAAAGUGGCUGUGGCUAGACUGCC [C8A C13U G21U] | 0.13
GGCAGAGAUAAACACAGCGUGGCAAAGUGGCUGUGGCUACACUGCC [C8A C10A G40C] | 0
GGCAGAGAUCAACACAGCGUGGAAAAUUGGCUGUGGCUAGACUGCC [C8A C23A G27U] | 0.18
GGCAGAGAUCAACACAGUGUGUCAAAGUGGCUGUGGCCAGACUGCC [C8A C18U G22U U38C] | 0.14
GGCAGAGAUCAACACAGAUCGGAAAAGUGGAUGUGGUUAGACUUCC [C8A C18A G19U U20C C23A C31A C37U G44U] | 0.02
GGCAGAGAUCAAGACAGCGUGGCAAAGUGGCUGUGGCUAGAAUGCC [C8A C13G C42A] | 0.12
GGCAGAGAUCAAGACAGCGUGGCAAAGUGGCUGUGGCUAGAUUGCC [C8A C13G C42U] | 0.26
GGCAGAGAUCAAUUCUGCGGGGCGAAGUGGCUGUGGCUAGACUGCC [C8A C13U A14U A16U U20G A24G] | 0.08
GGCAGAGAUCAACAUAGCGUAGCAAAGUGGCUGUGGCUAGACUGCC [C8A C15U G21A] | 0.3
GGCAGAGAUCAACACAGUGUGGCAAAGUUGCUGUGGUUAGACUGCC [C8A C18U G29U C37U] | 0.14
